The supplement of paper PMC11417369
± gives the standard deviation of the averaged measurements. The list shows a part of the results.

system: PfAP2-I AP2 domain 3 (GST-tagged); assay: gcPBM binding intensity (ln(normalized median fluorescence intensity)); higher = stronger DNA binding
Method in brief: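 The highest Masliner-normalised natural-log median intensity across replicate spots of either probe orientation is reported as binding intensity. GST-tagged P. falciparum DNA-binding domains expressed in E. coli were applied for 1 h to an Agilent 4 × 180k array of primer-extended double-stranded 36-bp intergenic genomic probes plus negative controls, and bound protein was detected with Alexa488 anti-GST antibody and scanned at 488 nm.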

| Sequence | gcPBM binding intensity (ln) |
| --- | --- |
| ATTTTATTTTTTCACACACACATATATATATATATA [CACACA_site3334] | 9.54 ± 0.4 |
| CCCAGGAATATAAAATGTACATAAAAAATACAAATT [XGTACX_site1708] | 8.27 ± 1.4 |
| TTTTTTTTTTTTGGATGTACTTAATGAAAATGTTAC [XGTACX_site8980] | 8.09 ± 0.52 |
| TAAGCACAAGCACAAGCACACATTTATATATATATA [CACACA_site883] | 9.13 ± 0.042 |
| ATAATAATATAAAAATGTACATATATTTATAATTGT [XGTACX_site3429] | 7.71 ± 0.54 |
| TCTTTGTATATATGTTCATTTGTAATATATATTCAT [TGCATGCA_negctrl_site467] | 7.47 ± 0.79 |
| TATTTGTGAAGAAATTGTACTCATATCTACATTTAT [XGTACX_site2245] | 7.63 ± 0.26 |
| CTCACAATACTTACATGTACATATTATATATATAAA [XGTACX_site1880] | 8.28 ± 0.49 |
| GTTGAAATAAAATTAGTGCATATATAAATATATATA | 10.2 ± 0.17 |
| AACTAATAGTATATTACATGCAAAAGTAAAAGTAAA [TGCATGCA_site411] | 8.02 ± 0.78 |
| ACTGAAAAAAGAAATACACACATTCTGGATCAGATA [CACACA_site7760] | 7.49 ± 0.63 |
| TCATTCTTGTGTTTATGTACACATATTTATATTGTA [XGTACX_site710] | 7.79 ± 0.4 |
| TTATCATTTTTGGAATGTACTTACATTAAATATTTA [XGTACX_site4034] | 7.63 ± 0.26 |
| TATATGCAAAATGTCACACATGTGATAAATACATAT [CACACA_site4302] | 7.94 ± 0.83 |
| GGAACCATCCAAAAAAAAAAAAAAAATAATAATAAT [CACACA_negctrl_site383] | 7.5 ± 0.85 |
| ACATGTACAGAAATTTATATATATATATATATATAT [CACACA_negctrl_site1584] | 9.38 ± 0.5 |
| ATTATTATGTATTGCCGTACACATATTATCACAGAA [XGTACX_site3740] | 8.05 ± 0.49 |
| TATAAATAAACATTTACACACTCTTATAATAAATAT [CACACA_site1679] | 7.52 ± 0.44 |
| TCTTCATATATAATTGTACACACAAAAACGACATTG [CACACA_site8645] | 8.15 ± 0.49 |
| TATTATAATTAATATACACACGCTTATATATATATA [CACACA_site75] | 9.105 ± 0.021 |
| TTTTTATAAAATTTTATGAGCTCGGAAAAAATAAAC [GTGCAC_negctrl_site637] | 8.49 ± 0.48 |
| TAATTATTTGCCCTTACTCTGAACATTCGGAATTTA [CACACA_negctrl_site1278] | 8.15 ± 0.28 |
| TTTTAATATTAAGATGTCTTTTACGTTTATTTTGTA [CACACA_negctrl_site765] | 7.58 ± 0.73 |

| Sequence | gcPBM binding intensity (ln) |
| --- | --- |
| ATTTACGCGCTTATTACACACACATACAAATAAGGA [CACACA_site9157] | 8.41 ± 0.25 |
| TTCTTTTTAAATTACACACACATATAAATATGTATA [CACACA_site7618] | 7.89 ± 0.58 |
| ATCTGCATATATATATGTACATATTTTAGAATGCAC [XGTACX_site708] | 9.71 ± 0.38 |
| TTTTTTTTATTTTGTTGTACGCTTATTTGTATATAT [XGTACX_site7325] | 8.04 ± 0.52 |
| TTTATGTGTTATAAATGTACATAATATAATTCGTAT [XGTACX_site3845] | 7.77 ± 0.48 |
| TTATCTATAAATACGAGTACGCAAAATCATATAATA [XGTACX_site2447] | 7.91 ± 0.42 |
| ATATAAGGATAACCTAGTACATATTATATGAAACAA [XGTACX_site8459] | 7.74 ± 0.38 |
| AAAATAAATAAATAAATATATATATATATATATATA [TGCATGCA_negctrl_site558] | 9.29 ± 0.44 |
| AAGGGGAAAAAAAAAAGTACACAAACATAGGATAAT [XGTACX_site377] | 7.97 ± 0.61 |
| CAATTAAAATGCAACGGTACACATAAAAAAAATAAA [XGTACX_site6216] | 8 ± 0.38 |
| TACGGTAAATAGTGTTGTACGATACAATTGTTTTCT [XGTACX_site8118] | 7.45 ± 0.66 |
| CCACAAGTATATAGTAGTACAATTTTTTTCTCTTTA [XGTACX_site4403] | 7.75 ± 0.44 |
| GTATGAAATTATAATAGTACATATAAATAAAAAAAA [XGTACX_site8955] | 7.88 ± 0.67 |
| TGTATTATATGTAAATGTACATTTAATATTTTATAT [XGTACX_site4461] | 7.78 ± 0.33 |
| TATATATAATATATATATATGGAAATTCTTTTAAAT [XGTACX_negctrl_site50] | 7.97 ± 0.14 |
| ACAATATCTAGATACACACACATATCTCTCAATCTA [CACACA_site656] | 7.88 ± 0.52 |
| TATAATATTCTATATGCATGTACACCATTCTTTATT [TGCATGCA_site688] | 8.02 ± 0.62 |
| TTTTTTTTTATTTGTTGTACGAGGTTTTAAAATTTT [XGTACX_site106] | 7.88 ± 0.57 |
| AAAAAGGTTATTGGTACACACATATGTATATAAATA [CACACA_site6402] | 7.78 ± 0.4 |
| TAATAAAACATATATACACACATTATATATACATAT [CACACA_site8495] | 7.75 ± 0.33 |
| TATTGTTATCTTTTATGTACTTAAAAAAATAAATTT [XGTACX_site4233] | 7.91 ± 0.26 |
| GTAGGCATTAAAAAATGTACAAAATATTATGAATTG [XGTACX_site1615] | 7.65 ± 0.55 |
| GTTAAAAAAAGGAGAGATCTCACACAAATATATATA [GTGCAC_negctrl_site117] | 8.06 ± 0.79 |

| Sequence | gcPBM binding intensity (ln) |
| --- | --- |
| GGGTGCCAAATTAGCACACACATATATACCTGAATT [CACACA_site5551] | 10.3 ± 0.29 |
| AATATATATGAAAAAAGTACTCAAGGAATAAAAAAA [XGTACX_site7720] | 8.13 ± 0.74 |
| CATTTAATAATAACAAGTACACAAAGATGTATAACA [XGTACX_site8315] | 7.74 ± 0.29 |
| ATGATAAATATAAGTTGTACATATATCTATGTGCAT [XGTACX_site6010] | 7.84 ± 0.53 |
| CATAAATACTATATATGTACGTAATTTTTAAAACAT [XGTACX_site7710] | 8.12 ± 0.45 |
| TTACAAATAATTTGTTGTACGCTTTTTTTCTTTTTT [XGTACX_site7199] | 7.7 ± 0.4 |
| TATATATATATATATGTGCGCATTACTTTAAGAATA | 9.61 ± 0.16 |
| TTATTTTTTTTTTTTTGTACACAATTTGACACATTA [XGTACX_site7983] | 8.06 ± 0.38 |
| TTTATTTAATTATGTTGTACATGTAGGATTTATTTT [XGTACX_site7078] | 7.8 ± 0.38 |
| TAAAAAGTTATATTCACACACATACACATATAAATA [CACACA_site6398] | 7.63 ± 0.47 |
| AAAAAGGAAATAATAACACACATTAATAATTATAAA [CACACA_site3401] | 7.58 ± 0.62 |
| TAATAAATAATGGTTACACACAAAATATAAAACTTA [CACACA_site3544] | 7.5 ± 0.32 |
| AATTATAAATCTTGCACACAAAAAAAATAATAAAAA [CACACA_site2434] | 8.705 ± 0.049 |
| TAAACACATATATAGACATGCAACTAGTTTTTATAA [TGCATGCA_site474] | 7.54 ± 0.58 |
| AAATCTTTGTGTGGATGTACTTTTATAAAAAAGAAT [XGTACX_site3830] | 7.91 ± 0.52 |
| TCTGTTCTTTTTTAATGTACAAGAAATATAAAATTC [XGTACX_site3600] | 7.76 ± 0.37 |
| AATTTTTAGTATATAACATAAAATAAAATAAAATAA [GTGCAC_negctrl_site696] | 7.97 ± 0.85 |
| TATTACTTAAATAAAAGTACATATAACATTTTAGTT [XGTACX_site196] | 7.62 ± 0.42 |
| AATAGTTGCTAAAGGTGTACAATACATTTATTAGAA [XGTACX_site2773] | 8.21 ± 0.47 |
| TCTTTGGTATTTACATGTACATATTCTTAAAAACAT [XGTACX_site3124] | 8.23 ± 0.47 |
| TGTATAGTCTAAAGTTGTACAAAAAAAAAAAAAAAA [XGTACX_site5764] | 8.07 ± 0.46 |
| GAAAATAAAATATTAGTGCATTATTTGATCAATAAT | 11.3 ± 0.73 |
| TATATTTATACTTATACACACATTATTGAATTAACC [CACACA_site934] | 7.73 ± 0.55 |

| Sequence | gcPBM binding intensity (ln) |
| --- | --- |
| AGTGTAAGCTAAGTGGTGCGTTGAATAAGGTTTTTT [GTGCAC_site9951] | 10.7 ± 0.3 |
| TATAGGTATTTGTATACACACAAATGTATATATCTA [CACACA_site6713] | 7.47 ± 0.42 |
| CTTTATATATTTTATTGTACTTAAAAAAAAAAAAAA [XGTACX_site2134] | 8.11 ± 0.42 |
| AAAAAATATGCATATACACACATATGTATAAATAAC [CACACA_site7090] | 7.92 ± 0.83 |
| AAAATATTTATTCCTAGTACTTACCATTATATATAT [XGTACX_site363] | 8.21 ± 0.33 |
| AAAAAAAAATGAAAAGAAAAAAAAAGAAAAAAGGGA [CACACA_negctrl_site287] | 7.67 ± 0.4 |
| ATTATTTATATTTGGAGTACTTATAATATTTTTATA [XGTACX_site1289] | 8.02 ± 0.17 |
| TATATATATAATATATGTACTCATATTAAGAGATAC [XGTACX_site1354] | 8.38 ± 0.22 |
| AAAAAAAAAAAAAACACACACACACGCATACACATA [CACACA_site7364] | 8.46 ± 0.55 |
| ATAAATAAAACAAATAGTACAATATAAAAAAAAAGG [XGTACX_site87] | 8.13 ± 0.67 |
| AAGAGGATACACAATGTGCACTTTTTTTTTTTTTTT [GTGCAC_site9415] | 10.045 ± 0.007 |
| TATACAGATATATATACACACATATATATAAATACA [CACACA_site4383] | 7.54 ± 0.33 |
| AATGAGCTTTTTAAAAGTACTAAATATAAATAAATA [XGTACX_site3632] | 7.7 ± 0.61 |
| TATATATGTATATTTTGTACGTATTTATTTACATGA [XGTACX_site4584] | 7.68 ± 0.2 |
| ATTTTTTTGTTAATTTGTACATAAAATTTTATTTTA [XGTACX_site7007] | 7.97 ± 0.69 |
| ATATTTATTTTATAAAGTACTAAAAAATATATTATA [XGTACX_site8522] | 7.61 ± 0.4 |
| AAAAAAAAAAAAAAAACACACAAACGCTTTTTTTTT [CACACA_site4545] | 8.92 ± 0.55 |
| GGATAAGAGGCATATACACACAATTTAAAAAAATAA [CACACA_site4657] | 7.94 ± 0.3 |
| ATAAATATTGCGTGCACACACATAATATTTATATAT [CACACA_site7136] | 10.49 ± 0.021 |
| TATAATATATTCATGTGTACATATATTTCGAACATA [XGTACX_site1754] | 8.01 ± 0.2 |
